The record followed here is ChEMBL document CHEMBL5308541, “MAIP: An Open-Source Tool to Enrich High-Throughput Screening Output and Identify Novel, Druglike Molecules with Antimalarial Activity” (ACS Med Chem Lett, 2023).

In all, about 150,000 compounds went through this assay and about 540 (0.36%) showed an effect of 50% or more. This is one part of the list.

The test system of the assay is Plasmodium falciparum. Put plainly: Primary screen in NF54 nanoGlo assay, in single point, at 2uM, 72h; a lower Z score goes with more inhibition. Type of assay: functional, Erythrocyte. To be noted: timepoint 72 hour.
`COc1ccc(-c2cncc(C(=O)Nc3cnccc3OC)c2)cc1`: the % Inhibition (usually the drop in the measured response relative to a control, in per cent) is -3% and the Z score came to 0.52.
`CN(Cc1ccc2cc[nH]c2n1)Cc1noc(C2CCC2)n1`: the “% Inhibition” value is 0% and the Z score is reported as 0.01.
With `CCC(C)CCC(=O)N1CCCCCC(Nc2cc(-n3ccnc3)ncn2)C1` (stereo unspecified), the “% Inhibition” value was -4% and the Z score stood at 0.68.
`O=C(NCCc1c[nH]cn1)c1cnc(Nc2ccccc2)nc1`: the “% Inhibition” value is listed as -8% and the Z score amounted to 1.66.
The matching figures for `N#C[C@@H](NC(=O)c1cccc(-n2cccn2)n1)C1CCCCC1`: -8% and 1.32.
For the molecule `Cc1nc2c([nH]1)CN(C(=O)CN1CCC[C@H](O)C1)CC2`, the “% Inhibition” value was 3% and the Z score is listed as -0.44.
For `CCn1nc(C(=O)N2CCN(Cc3cccc(F)c3)C(=O)C2)cc1C` the same measures were -1% and 0.14.
`COc1ccc2sc(C(=O)N3CCC[C@H](N4CCNCC4=O)C3)c(C)c2c1`: the “% Inhibition” value is given as 2% and the Z score is recorded as -0.38.
The matching figures for `O=S1(=O)CCN(C2CCN(Cc3cnn4ccccc34)CC2)CC1`: 1% and -0.23.
The matching figures for `CN(C)CCCN(CCCN(C)C)C(=O)CCc1ccc(O)c(Cl)c1`: 3% and -0.59.
The matching figures for `CN(C)Cc1ccc(N2CCN(c3cncc(OCC4CCCC4)n3)CC2)nc1`: 10% and -1.77.
With `Cn1ccc(NC(=O)CN2CCOc3ccc(CO)cc3C2)n1`, the “% Inhibition” value was 4% and the Z score is given as -0.74.
The matching figures for `COC1(c2nc(C3CCOCC3)no2)CCN(c2ncnc3[nH]ccc23)CC1`: 0% and -0.02.
The matching figures for `C[C@@H](c1ncc(-c2ccccc2)o1)N1CCC(C(=O)NCCCN2CCCCC2)CC1`: -5% and 1.18.
The matching figures for `O=S1(=O)CCN(C2CCN(c3ccnc(C(F)(F)F)c3)CC2)CC1`: -8% and 1.26.
`O=C(c1cc2ccccc2o1)N1CCC(N2CCN(c3ccc(C(F)(F)F)cn3)CC2)CC1`: the “% Inhibition” value is -8% and the Z score is 1.24.
As to `COc1ccccc1COCC1CN(C(C)C(O)c2ccc(O)cc2)CC(COCc2ccccc2OC)O1` (stereo unspecified), the “% Inhibition” value was 4% and the Z score is recorded as -0.92.
For `c1ccc(CCN2CCC([C@H]3CCN(c4ncccn4)C3)CC2)cc1` the same measures were 0% and -0.06.
On to `Cc1ccc2[nH]c(-c3cc4n(n3)CCN(c3ccnc(N)n3)C4)nc2c1C`, for which the “% Inhibition” value was found to be 84% and the Z score is given as -16.64.
Consider `CC1CN(C(=O)C(c2cncn2C)N(C)C)CC(C)O1` (stereo unspecified), for which the “% Inhibition” value was -5% and the Z score is given as 0.9.
For `Cn1cc(-c2cncc(C(=O)Nc3ccc(Oc4nncc5ccccc45)c(Cl)c3)c2)cn1` the same measures were -3% and 0.74.
On to `Cc1ccc(CN2CCC(CNC(=O)c3n[nH]nc3C)CC2)o1`, for which the “% Inhibition” value is -4% and the Z score is 0.73.
For `CNc1ccnc(NCCCN2CCC(C(N)=O)CC2)n1`, the “% Inhibition” value is on record as -8% and the Z score worked out at 1.46.
Consider `CC(C)Nc1ncc(CN2CCN(C/C=C/c3ccccc3)CC2)cn1`, for which the “% Inhibition” value is reported as -5% and the Z score is reported as 0.91.
Turning to `FC(F)(F)Oc1ccccc1-c1ccc(-n2ccnc2)nn1`, the “% Inhibition” value is reported as -13% and the Z score is 2.04.
For the molecule `COc1ccccc1-n1cc(C(=O)N2CCN(Cc3cccc(C)c3)C(=O)C2)cn1`, the “% Inhibition” value was -8% and the Z score is listed as 1.32.
The matching figures for `CC(C)c1ccc(COc2ccc(O)c(-c3c[nH]nc3-c3ccc4c(c3)OCCCO4)c2)cc1`: -4% and 0.55.
For `COc1ccc2nccc(N3CCC(O)CC3)c2c1` the same measures were 5% and -0.83.
For `CCc1nnc(C[C@@H]2CC[C@H](Nc3nccc(N4CCCC4)n3)C2)o1` the same measures were -14% and 2.71.
Turning to `CNc1nc(N[C@H]2CCCN(Cc3ccc(Cl)cc3)C2)nc2c1CCC2`, the “% Inhibition” value turned out to be 49% and the Z score is -8.5.
Regarding `Cc1ccc2c(C(=O)NCC3(CN4CCCC4)CC3)cnn2c1`, the “% Inhibition” value amounted to 8% and the Z score is on record as -1.46.
The matching figures for `COc1cccc(-c2nc3cnccn3c2NCCC(=O)NC2CCN(C)CC2)c1`: 3% and -0.63.
`CNS(=O)(=O)c1cc(-c2ccc(N(C)Cc3ccccc3)nn2)ccc1C`: the “% Inhibition” value is -11% and the Z score stood at 2.26.
With `O=C(C(=O)N1CCN(CC2OCCO2)CC1)N1CCOCC1`, the “% Inhibition” value was found to be 5% and the Z score was -0.82.
On to `c1cc(-c2nc(CNc3cnn(CCN4CCCCC4)c3)cs2)cs1`, for which the “% Inhibition” value is on record as 2% and the Z score is listed as -0.32.
For `CC1(N2CCC2)CCC(NC[C@H]2CCN(Cc3ccccc3)C2)CC1` (stereo partly specified) the same measures were 73% and -12.59.
The matching figures for `CC(=O)N1CCC(CNc2cc(C)nc3ccc(C(F)(F)F)cc23)CC1`: -3% and 0.63.
For `Cc1ccc(OC[C@@H](O)CNc2nccc(-c3ccncc3)n2)c(C)c1` the same measures were -6% and 1.1.
Consider `OCc1cc2ccccc2nc1-c1cccc2[nH]ccc12`, for which the “% Inhibition” value is -1% and the Z score is given as 0.28.
The matching figures for `Cc1cc(C)nc(Nc2cccc(C(=O)Nc3cccc4[nH]ccc34)c2)n1`: -10% and 1.71.
For `COc1cccc(-c2cc(C(=O)Nc3cnn4c3NCCC4)n[nH]2)c1` the same measures were 6% and -0.85.
On to `C[C@H](NCc1cccc(-c2cnn(C)c2)c1)c1cnc2ccsc2c1`, for which the “% Inhibition” value is 4% and the Z score is on record as -0.95.
The matching figures for `CN1CCN2CCN(Cc3ccc(OCCn4ccnc4)cc3)C[C@@H]2C1`: 4% and -0.58.
For the molecule `O=C(NCc1ccc2ncccc2c1)c1ccccc1Br`, the “% Inhibition” value is listed as 3% and the Z score is given as -0.57.
With `CC(C)(CN[C@H]1CCCN(c2nc3ccccc3s2)C1)CN1CCOCC1`, the “% Inhibition” value is -5% and the Z score came out at 0.95.
The matching figures for `c1ccc(-c2cc(CNC3CCN(c4ncnc5[nH]cnc45)CC3)on2)nc1`: -2% and 0.31.
On to `Cc1cn(CC(=O)N2CCC(c3cc(C(C)C)n[nH]3)CC2)c(=O)[nH]c1=O`, for which the “% Inhibition” value was -9% and the Z score was 1.87.
For `CN1CCC[C@H](Nc2ccc3cc(Cl)ccc3n2)C1` the same measures were 14% and -3.01.
Take `CN1CCCC[C@@H]1CC(=O)N1CCN(c2nccc(-c3ccccc3)n2)CC1`: the “% Inhibition” value was 1% and the Z score is reported as -0.26.
The matching figures for `Cc1ccnc(NCc2cnc3ccccc3c2)n1`: -1% and 0.28.
On to `CCC(=O)c1cccc(-c2ccc(C(=O)N(CC)C[C@H]3CCN(C)C3)cc2)c1`, for which the “% Inhibition” value was -4% and the Z score was determined as 0.78.
For `CCn1ccc2ccc(CN3CCc4[nH]nc(C5CC5)c4C3)cc21` the same measures were -1% and 0.14.
For `C[C@@H](c1ccc(-c2ccc3[nH]cnc3c2)cc1)N1CCCC1` the same measures were 2% and -0.36.
